According to a collection of fitness landscapes (doi:10.1016/j.celrep.2020.107928):
In all, about 81,000 sequences were measured (“one-hybrid fitness for binding NBS DNA”: median about -0.1, highest 2% from about 0.36 on). The list shows a part of the results.

B1: Caulobacter ParB omega fusion; a variant is named by its letters at X, in order, B8GW30 (parent)
chain: MESVVVGEPGMSEGRRGLGRGLSALLGEVDAAPAQAPGEQLGGSREAPIEILQRNPDQPRRTFREEDLEDLSNSIREKGVLQPILVRPSPDTAGEYQIVAGERAWRAAQRAGLKTVPIMVRELDDLAVLEIGIIENVQRADLNVLEEALSYKVLMEKFERTQENIAQTIGKSXSHVANXMRLLXLPDEVQSYLVSGELTAXHARAIAAAADPVALAKQIIEGGLSVRETEALARKAPNLSAGKSKGGRPPRVKDTDTQALESDLSSVLGLDVSIDHRGSTGTLTITYATLEQLDDLCNRLTRGI

Variants of: B1
Assay: one-hybrid fitness for binding NBS DNA (the Noc-binding site; scaled: cognate 1, non-cognate 0); higher = stronger binding
Conditions: with NBS DNA site
Summary of the method: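 In E. coli USO, a HIS3 reporter with its site placed 19 bp from the promoter was used to select Caulobacter ParB variants randomised at four specificity codons. Growth lasted 48 hours at 37°C on histidine-free M9 containing 0.1 mM IPTG and 5 mM 3-AT. Fitness was taken as the log change in variant-to-wild-type read ratio from Illumina sequencing of pre- and post-selection plasmids, rescaled between the non-cognate and cognate sites.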

Row | Variant | one-hybrid fitness for binding NBS DNA
1 | GGFT | ≤ 0.2
2 | TRVR | 0.215
3 | VDVT | ≤ 0.2
4 | DHIR | ≤ 0.2
5 | PTGT | ≤ 0.2
6 | HNFC | ≤ 0.2
7 | SFFC | ≤ 0.2
8 | STHR | ≤ 0.2
9 | KGMR | ≤ 0.2
10 | GHTT | ≤ 0.2
11 | HSRE | ≤ 0.2
12 | ITYH | ≤ 0.2
13 | AMQS | ≤ 0.2
14 | WSQT | ≤ 0.2
15 | LYPV | ≤ 0.2
16 | QMMW | ≤ 0.2
17 | AIND | ≤ 0.2
18 | CIIW | ≤ 0.2
19 | SVRM | ≤ 0.2
20 | PIDC | ≤ 0.2
21 | WPDC | ≤ 0.2
22 | CFTV | ≤ 0.2
23 | KPKV | ≤ 0.2
24 | TSNG | ≤ 0.2
25 | DIVD | ≤ 0.2

Row | Variant | one-hybrid fitness for binding NBS DNA
26 | PRCS | ≤ 0.2
27 | TAHC | ≤ 0.2
28 | KTKN | ≤ 0.2
29 | MNTS | ≤ 0.2
30 | PNGS | ≤ 0.2
31 | GFTD | ≤ 0.2
32 | GIMA | ≤ 0.2
33 | TSQE | ≤ 0.2
34 | YCNA | ≤ 0.2
35 | RQLQ | ≤ 0.2
36 | PCPY | ≤ 0.2
37 | DPKC | ≤ 0.2
38 | DFRC | ≤ 0.2
39 | RRNS | 0.678
40 | AYYT | ≤ 0.2
41 | YVPM | ≤ 0.2
42 | NAMS | ≤ 0.2
43 | PAAD | ≤ 0.2
44 | RYWN | ≤ 0.2
45 | WAVS | ≤ 0.2
46 | TESA | ≤ 0.2
47 | GIDK | ≤ 0.2
48 | NNSK | ≤ 0.2
49 | LYNS | ≤ 0.2
50 | PTTE | ≤ 0.2

Row | Variant | one-hybrid fitness for binding NBS DNA
51 | AIPV | ≤ 0.2
52 | AVNF | ≤ 0.2
53 | ADDQ | ≤ 0.2
54 | NMRY | ≤ 0.2
55 | FSRY | ≤ 0.2
56 | NKCR | ≤ 0.2
57 | AAMC | ≤ 0.2
58 | IMLS | ≤ 0.2
59 | GNDH | ≤ 0.2
60 | LTQR | ≤ 0.2
61 | AVGI | ≤ 0.2
62 | FWRV | ≤ 0.2
63 | PHPS | ≤ 0.2
64 | KMVR | ≤ 0.2
65 | YAKI | ≤ 0.2
66 | RRWK | 0.249
67 | LKLS | ≤ 0.2
68 | STWQ | ≤ 0.2
69 | AAKI | ≤ 0.2
70 | TYAV | ≤ 0.2
71 | TLRF | ≤ 0.2
72 | QQTV | ≤ 0.2
73 | NQPR | ≤ 0.2
74 | RAQM | ≤ 0.2
75 | IHVS | ≤ 0.2

Row | Variant | one-hybrid fitness for binding NBS DNA
76 | AFVL | ≤ 0.2
77 | RTDQ | ≤ 0.2
78 | IGHL | ≤ 0.2
79 | LINS | ≤ 0.2
80 | AVLT | ≤ 0.2
81 | QKKS | 0.662
82 | MRVC | ≤ 0.2
83 | CKRS | ≤ 0.2
84 | HLNC | ≤ 0.2
85 | PADI | ≤ 0.2
86 | ARRI | ≤ 0.2
87 | PFLM | ≤ 0.2
88 | PCHL | ≤ 0.2
89 | HAYN | ≤ 0.2
90 | NKIY | ≤ 0.2
91 | LNFM | ≤ 0.2
92 | AGDS | ≤ 0.2
93 | CSAM | ≤ 0.2
94 | EINR | ≤ 0.2
95 | NNET | ≤ 0.2
96 | TCPE | ≤ 0.2
97 | TCNR | ≤ 0.2
